# The supplement of paper PMC11383711
# Positions count from the first letter of the chain named. The list shows a part of the results. Binding of human antibodies (heavy:light variable regions, tested as scFv in one mRNA-display pool) to influenza hemagglutinin, with or without the stem antibody CR9114 bound first. Score = (mean enrichment − median) / interquartile range of that screen; higher = more enriched, 0 = typical non-binder. Active = above the paper's cut-off per screen: stems 28; unblocked H1 Solomon Islands 5, H1 Michigan 3, H3 5, H5 19, H7 2.85, both B 5; blocked 9, 7, H5 10, H7 10, B Phuket 10, B Lee 11.5. Scores are scaled within each screen and are no affinities; replicates correlate at about 0.6 to 0.9, and antibodies rare in the pool are noisier.
# B1: K77-1B07 (protein)
# chain 1: QVQLVQSGAEVKKPGASVKVSCKASDYSLTNYYLHWVRQPPGQGLEWMGIIHPNGITTTYAQKFLGRVTMTRDTSTSTVYMELTSLRSDDTAVYYCARRGVVITSEGYHYYGLDVWGQGTTVTVSS
# chain 2: EIVLTQSPGTLSLSPGERATLPCRASQSVSSSYLAWYQQKPGQAPRLLIYGASSRATGIPDRFSGSGSGTDFTLSISRLEPEDFAVYYCHHYGSTGTFGGGTKVEIK
# B2: antibody 2C03 (protein)
# chain 1: VQLVESGGGVVQPGRSLRLSCAASGFTFSTYAMHWVRQAPGKGLEWVAIISYDGTYKYYADSVKGRFTISRDNLKNTLYLQMDSLRAEDTAVYYCGGECDGDCGGIDYWGQGALVTVSS
# chain 2: DIVMTQSPDSLAVSLGERATINCRSSHSLLYSSNNKNYLAWYQQKPGQPPKLLIYWASTRHSGVPDRFSGSGSGTDFTLTISSLQAEDVALYYCQQYYDTPFTFGPGTKVEIK
# B3: 014-10-1D01 (protein)
# chain 1: QVQLQESGPGLVKPSQTLSLICTVSGGSVSSGNHYWSWIRQPAGRGLEWIGRIFSDGSTYYHPSLKSRVTMSLDTSKNQVSLKLSSVTAADTAMYYCARDYSGYDYLAFDIWGQGSMVTVSS
# chain 2: QSVLTQPPSASGTPGQRVTISCSGDNFNIGRNTVNWYQQLPGTAPKLLIYTTNQRPSGVPDRFSGSQSGTSASLAISGLQSEDEADYYCAAWDDSLSGLWVFGGGTKLTVL
# B4: 051-09-4D03 (protein)
# chain 1: QVQLVQSGPEVRKPGASVKVSCKASGYTFTNHDINWVRQAPGQGLEWMGWVNPSNNNVGYAQKFRGRVTMTKDSSTSTVHMELYSLTSEDTAVYYCARGLGGGISVFGVLVRGRWFDPWGQGTLVTVSS
# chain 2: DIQMTQSPSTLSASVGDRVTITCRASQSISTDLAWYQQKPGRAPKVLIFEASRLQSGVPSRFSGSGSGTEFTLTISSLQPGDVATYYCQQYNIYSWTFGQGTKVEIK
# B5: C1-2-2F03 (protein)
# chain 1: VQLQESGPGLVKPSETLSLTCSVFGDSISSHYWSWIRQPPGKGLEWIGYIYYSSRTDYNPSLKSRVTISVDTSKNQVSLSLRSVTAADTAVYYCARTMDTSGWQPYYYGMDVWGQGTTVTVSS
# chain 2: EIVLTQSPGTLSLSPGERATLSCRASHTVSSNNLAWYQQKPGQAPRLLIYGSSSRAYGIPDRFSGYGAGTDFTLTISRLEPEDFAVYYCQQYGSSPMYTFGQGTKVEIK
# B6: C1-2A02 (protein)
# chain 1: VQLVESGGGLVQPGGSLRLSCVASGFDFNQYSMNWVRQAPGKGLEWLSYISSSAATVFYADSVQGRLTISRDNGKNSLFLQMNSLRVEDTAVYYCVREAVIVDGMPFEYWGQGALVTVSS
# chain 2: EIVMTQSPGTLSVSPGESATLSCRASESVGSSLAWYQQKPGQAPRLLIFHTSTRATGVPARFSGSGSGTEFTLTISGMQSEDSGVYHCHQYKGWPPWTFGQGTKVEIK
# B7: R95-1B07 (protein)
# chain 1: QVQLQGSGPGLVKPSGTLSLTCGVSCASISSNHVSSGVPQPPGKGGEAIGELVHNGRTIYNPSLRSRLNISLDRSKILFSLKLTSVTAADTAVYYCAFFQRGYTSGSDYWGQGTLVTVSS
# chain 2: QAVVTQEPSFSVSPGGTVTLTCGLSSGSVSTNNYPSWYQQTPGQAPRTLIYSTNTRSSGVPDRFSGSILGTRAALTVTGAQAEDESDYYCMLYLGSGSWVFGGGTKLTVL
# B8: R95-1F03 (protein)
# chain 1: QVQLQESGPGLVKASGTLSLTCVVSGGSIRSENWWSWVRQPPGKGLEWIGEVYHSGNANYNPSLKSRVSISVDESKTQFSLRLTSVTAADTAVYYCVKDGARDSSGYYNYRWGWYDPWGQGILVVVSS
# chain 2: DIQMTQSPSSLSASVGDRVTITCRASQSIGGYLNWYQQKPGKAPKLLIYAASTLQSGVPARFSGSGSGTDFTLTISSLQPEDFATYYCQQSYNLVSITFGQGTRLDIK
# B9: antibody 3G01 (protein)
# chain 1: VQLQESGPGLVRPSKTLSLTCTVSGDSIDSSTDYWAWIRQPPGKGLEWIGNIYYSGTTYYNPSLQSRVTISVDTSKNQFSLTLRSVTAADTALFYCARQEIVGIRVWGQGTLVTVSS
# chain 2: DIVMTQSPDSLAVSLGERATISCKSSQSVLYSANNKNYLAWYQQRPGQPPKLLIYWSSTRESGVPDRFSGSGSGTDFSLTISSLQAEDVAVYYCQQYYDTPYTFGQGTKVEIK
# B10: K77-1B01 (protein)
# chain 1: EVQLVESGGVVVQPGGSLNLSCAASGFTFDDYAMHWVRQTPGKGLEWVSLISWDGGHTYYADSVKGRFTISRDNSKNFLYLEGHSLRPEDTALYYCVRDPGAGNYYYYGMDVWGHGTTVTVSS
# chain 2: B9 chain 2 with S22N, S32R, A33S, N35K, R45K, S57A, S78T, D99T, Y102H, V110L
# B11: 051-10-2B05 (protein)
# chain 1: EVQLVESGGGLVKPGGSLRVSCAASGFIFGTFGMNWVRQAPGKGLEWVSSISSASASIEYADAVKGRFTISRDNAEKSLYLQMNSLRADDTAVYYCARDGGVPRRYSLDVWGQGTTVTVSS
# chain 2: QSALTQPASVSGSPGQSITISCTGTSSDVGAYNLVSWYQQHPGKAPKLMIFDVTNRPSGVSNRFSGSKSGDTASLTISGLQAEDEADYFCSSYTNTRTLLFGGGTKLTVL
# B12: antibody 2G04 (protein)
# chain 1: EVQLLESGGGVVQPGRSLRLSCAASGFIFSYSGIHWVRQAPGKGLEWVALISYDGRNQYYADSVKGRFTISRDNTKTTLQMNNLRAEDTAVYFCARDRHDFGDNYEIDYWGLGTTVTVSS
# chain 2: FMLTQPHSVSESPGKTVTISCTRSSGNIASYFVQWYQQRPGSAPTTVIFEDDQRPSGVPDRFSGSIDSSSNSASLTISGLRTEDEADYYCQSYDTINPHVIFGGGTKLTVL
# Biological target: Influenza A H1N1 A/Michigan/45/2015 hemagglutinin ectodomain
# Test: mRNA display binding score; higher = more enriched on the antigen
# Conditions: antigen blocked with: 2 µM CR9114 IgG
# Procedure: (§1)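 A pool of natively paired antibodies, displayed as scFv on mRNA, was selected once on antigen-coated beads and sequenced before and after; two replicates.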
row,Binder,mRNA display binding score
1,B1,inactive: -0.488
2,B2,inactive: -0.155
3,B3,inactive: -0.389
4,B4,inactive: -0.195
5,B5,inactive: 0.239
6,B6,inactive: -0.461
7,B7,inactive: -0.515
8,B8,inactive: -0.199
9,B9,inactive: -0.462
10,B10,inactive: -0.0579
11,B11,inactive: 0.445
12,B12,inactive: 3

# Same assay, conditions: antigen blocked with: nothing
row,Binder,mRNA display binding score
1,B1,inactive: -0.694
2,B2,inactive: -0.027
3,B3,inactive: -0.349
4,B4,inactive: 0.498
5,B5,inactive: 0.685
6,B6,inactive: -0.504
7,B7,inactive: -0.736
8,B8,inactive: -0.701
9,B9,inactive: -0.26
10,B10,inactive: 0.344
11,B11,inactive: -0.834
12,B12,inactive: 0.348

# Biological target: Influenza A H1N1 A/Solomon Islands/3/2006 hemagglutinin ectodomain
# Test: as above
# Conditions: antigen blocked with: 2 µM CR9114 IgG
# Procedure: as §1
row,Binder,mRNA display binding score
1,B1,inactive: -0.874
2,B2,inactive: -0.379
3,B3,inactive: -0.525
4,B4,inactive: 0.0293
5,B5,inactive: 0.623
6,B6,inactive: -0.488
7,B7,inactive: -0.462
8,B8,inactive: -0.621
9,B9,inactive: -0.702
10,B10,inactive: 0.452
11,B11,active: 15.6
12,B12,inactive: 0.0111

# Same assay, conditions: antigen blocked with: nothing
row,Binder,mRNA display binding score
1,B1,inactive: -0.286
2,B2,inactive: -0.214
3,B3,inactive: -0.154
4,B4,inactive: 0.00837
5,B5,inactive: 0.089
6,B6,inactive: -0.172
7,B7,inactive: -0.632
8,B8,inactive: -0.654
9,B9,inactive: -0.328
10,B10,inactive: -0.331
11,B11,inactive: 4.75
12,B12,inactive: 0.834

# Biological target: Influenza A H3N2 A/Singapore/INFIMH-16-0019/2016 hemagglutinin ectodomain
# Test: as above
# Conditions: antigen blocked with: nothing
# Procedure: as §1
row,Binder,mRNA display binding score
1,B1,inactive: -0.428
2,B2,inactive: -0.553
3,B3,inactive: -0.113
4,B4,inactive: -0.284
5,B5,inactive: 0.283
6,B6,inactive: -0.511
7,B7,inactive: -0.362
8,B8,inactive: -0.553
9,B9,inactive: -0.0293
10,B10,inactive: 0.114
11,B11,inactive: -0.42
12,B12,inactive: 2.29

# Biological target: Influenza A H5N1 A/Qinghai/1A/2005 hemagglutinin ectodomain
# Test: as above
# Conditions: antigen blocked with: 2 µM CR9114 IgG
# Procedure: as §1
row,Binder,mRNA display binding score
1,B1,inactive: -0.606
2,B2,inactive: 0.419
3,B3,inactive: -0.528
4,B4,inactive: 0.527
5,B5,inactive: 1.17
6,B6,inactive: -0.577
7,B7,inactive: -0.817
8,B8,inactive: -0.751
9,B9,inactive: -0.798
10,B10,inactive: 0.0293
11,B11,inactive: 1.02
12,B12,inactive: 6.89

# Same assay, conditions: antigen blocked with: nothing
row,Binder,mRNA display binding score
1,B1,inactive: -0.514
2,B2,inactive: -0.522
3,B3,inactive: -0.301
4,B4,inactive: 0.401
5,B5,inactive: -0.0649
6,B6,inactive: -0.518
7,B7,inactive: -0.613
8,B8,inactive: -0.502
9,B9,inactive: -0.514
10,B10,inactive: 0.288
11,B11,inactive: -0.281
12,B12,inactive: 19

# Biological target: Influenza A H7N9 A/Shanghai/2/2013 hemagglutinin ectodomain
# Test: as above
# Conditions: antigen blocked with: 2 µM CR9114 IgG
# Procedure: as §1
row,Binder,mRNA display binding score
1,B1,inactive: -0.803
2,B2,inactive: 0.114
3,B3,inactive: -0.802
4,B4,inactive: -0.931
5,B5,inactive: 1.3
6,B6,inactive: -0.37
7,B7,inactive: -0.855
8,B8,inactive: -0.464
9,B9,inactive: -0.628
10,B10,inactive: -0.352
11,B11,inactive: 0.279
12,B12,inactive: 1.07

# Same assay, conditions: antigen blocked with: nothing
row,Binder,mRNA display binding score
1,B1,inactive: -0.567
2,B2,inactive: -0.266
3,B3,inactive: -0.424
4,B4,inactive: 0.32
5,B5,inactive: 0.546
6,B6,inactive: -0.258
7,B7,inactive: -0.774
8,B8,inactive: -0.558
9,B9,inactive: -0.398
10,B10,inactive: 0.262
11,B11,inactive: -0.398
12,B12,inactive: 0.257

# Biological target: Influenza B/Lee/1940 hemagglutinin ectodomain
# Test: as above
# Conditions: antigen blocked with: 2 µM CR9114 IgG
# Procedure: as §1
row,Binder,mRNA display binding score
1,B1,inactive: 1.28
2,B2,inactive: -0.107
3,B3,inactive: -0.78
4,B4,inactive: -0.977
5,B5,inactive: 0.656
6,B6,inactive: 1.84
7,B7,inactive: -0.449
8,B8,inactive: -0.326
9,B9,inactive: -0.614
10,B10,inactive: -0.0985
11,B11,inactive: -0.555
12,B12,inactive: 1.21

# Same assay, conditions: antigen blocked with: nothing
row,Binder,mRNA display binding score
1,B1,inactive: 0.0341
2,B2,inactive: 0.091
3,B3,inactive: -0.333
4,B4,inactive: -0.335
5,B5,inactive: -0.1
6,B6,inactive: -0.165
7,B7,inactive: -0.463
8,B8,inactive: 1.21
9,B9,inactive: -0.337
10,B10,inactive: -0.0307
11,B11,inactive: 0.169
12,B12,active: 69.7

# Biological target: Influenza B/Phuket/3073/2013 hemagglutinin ectodomain
# Test: as above
# Conditions: antigen blocked with: 2 µM CR9114 IgG
# Procedure: as §1
row,Binder,mRNA display binding score
1,B1,inactive: 0.00249
2,B2,inactive: 0.0324
3,B3,inactive: -0.455
4,B4,inactive: -0.603
5,B5,inactive: -0.281
6,B6,inactive: -0.325
7,B7,inactive: -0.591
8,B8,inactive: -0.378
9,B9,inactive: -0.48
10,B10,inactive: 0.0967
11,B11,inactive: -0.294
12,B12,active: 44.2

# Same assay, conditions: antigen blocked with: nothing
row,Binder,mRNA display binding score
1,B1,inactive: 0.575
2,B2,inactive: -0.162
3,B3,inactive: -0.289
4,B4,inactive: -0.304
5,B5,inactive: 0.0774
6,B6,inactive: 0.37
7,B7,inactive: -0.462
8,B8,inactive: -0.0425
9,B9,inactive: -0.363
10,B10,inactive: -0.0679
11,B11,inactive: 0.207
12,B12,active: 56.6
